# From PubChem BioAssay AID1508624 (National Center for Advancing Translational Sciences (NCATS), 2021)
# Screen size: about 48,000 compounds; about 120 (0.25%) were called active. Roughly 4% stayed inconclusive and do not appear here. Calls follow the shape of the dose curve; as a rule, active = well fitted activation curve with a large enough effect; inconclusive = small, poorly fitted or top-dose-only effect, or another doubt; inactive = no such curve, though single readings can be large or run the other way. This is one part of the list.
# Assay: Primary qHTS for Identification of Small Molecule Activators of Huntingtin-Antisense Promoter Activity; also: nearly all actives have a fitted effect of over 55% in size
# Settings: HEK293 HTT-AS promoter firefly luciferase reporter, 24 h; series mostly up to 57.5 µM; activity change, positive = activation: at the top concentration
# Summary of the method: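 Firefly luciferase signal from promoter-reporter HEK293 cells was scaled between vehicle (0%) and zero RLU (-100%). Compounds were tested at final concentrations of up to 57.5 uM over 24 h at 37 degrees C. PTC124 at 50 uM final served as control inhibitor.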
row,SMILES,"activity change, positive = activation"
1,CCCN1C(C(=O)c2ccccc2)=C(OC(=O)C(C)(C)C)c2ccccc2S1(=O)=O,inactive: -39.9%
2,Cc1ccc(NC(=O)CN2CCN(C3CCCCC3)C(=O)C2=O)cc1C,inactive: 6.08%
3,CCOC(=O)C1CCN(C(=O)Cn2nc(CC)n3c(cc4occc43)c2=O)CC1,inactive: -9.8%
4,Cc1cc(Cl)ccc1NS(=O)(=O)c1cc2[nH]c(=O)c(=O)[nH]c2cc1C,inactive: -14.4%
5,Cc1ccc(-n2c(=O)[nH]c3sc4c(c3c2=O)CCNC4)cc1C,inactive: -14.9%
6,COc1ccc(CN2C(=O)c3ccccc3C2C(=O)NC2CCCCCC2)c(OC)c1 (stereo not given),inactive: -41.8%
7,CCC(=O)N1CCc2cc(S(=O)(=O)NCCC(=O)Nc3cccc(SC)c3)ccc21,inactive: 0.275%
8,O=C(COc1ccccc1F)Nc1ccc2nc(SCc3ccccc3)sc2c1,inactive: 10.1%
9,COc1ccc2oc(=O)c(-c3nc4ccc(C)cc4[nH]3)cc2c1,inactive: 7.76%
10,Cc1ccc(-n2ncc(C(=O)N3CCN(c4cccc(C)c4C)CC3)c2C2CCNCC2)c(C)c1,inactive: -9.98%
11,CCOC(=O)c1cc(-c2ccc(F)cc2)n(CCC(=O)NCc2ccc(C)cc2)c1C,inactive: -28.9%
12,COc1ccc(Br)cc1CC1C(=O)Nc2ccccc21 (stereo not given),inactive: -51.3%
13,Cc1ccc(Cl)cc1N1CCN(C(=O)c2cn(C)c3ccc(S(=O)(=O)N4CCCC4)cc3c2=O)CC1,"inactive: 4.3% [at 11.5 µM, percent change from vehicle, -100% = no light]"
14,CCOc1ccc(-n2ccnc2SCC(=O)Nc2ccc(OC)cc2OC)cc1,inactive: -18.9%
15,COc1ccccc1N1CCN(C(=O)c2cc3c(=O)n(Cc4cccnc4)ccc3nc2C)CC1,inactive: -12.1%
16,O=C(Cn1c(=O)n(-c2ccccc2)c(=O)c2c3c(sc21)CCCC3)Nc1ccc(F)cc1,inactive: -13.1%
17,Cc1ccccc1OCC(=O)Nc1nnc(S(=O)(=O)N(C)c2ccccc2)s1,inactive: -18.3%
18,CCN1CCN(c2ncc3c(n2)CCN(Cc2ccc(C)s2)C3)CC1,inactive: -12.4%
19,Oc1cccc2[nH]ccc12,inactive: 4.1%
20,Cc1cccc(CCNC(=O)c2nc(-c3ccc(Cl)cc3)n3c2CCCCC3)c1,inactive: -15.7%
21,COc1ccc(Br)cc1CNC(=O)c1cc2c(=O)n(C)c3ccccc3c2s1,inactive: -8.09%
22,CCn1c2c(c(=O)n3ncc(C(=O)Nc4ccc(F)c(Cl)c4)c13)CN(Cc1ccc(OC)cc1)CC2,inactive: -5.51%
23,CN(C)[C@@H]1C(=O)C(C(=O)NCN2CCCC2)=C(O)[C@@]2(O)C(=O)C3=C(O)c4c(O)cccc4[C@@](C)(O)C3C[C@@H]12 (stereo not given in full),inactive: -6.22%
24,CC(C)CC(=O)N(Cc1ccccc1)S(=O)(=O)c1ccc2c(c1)oc(=O)n2C,inactive: -35.4%

row,SMILES,"activity change, positive = activation"
1,CCOc1ccc(C(=O)OCc2cc(=O)n3nc(C(C)C)sc3n2)cc1,inactive: 5.01%
2,CO/N=C(/C(=O)N[C@@H]1C(=O)N2C(C(=O)[O-])=C(C[n+]3ccn4ncccc43)CS[C@H]12)c1nsc(N)n1,inactive: 0.2%
3,COc1cccc(NC(=O)CN2C(=O)C3(SCC(=O)N3c3cc(C)cc(C)c3)c3ccccc32)c1 (stereo not given),inactive: -26.3%
4,Cc1ccc(CN2C(=O)N(c3ccc(C)c(Cl)c3)S(=O)(=O)c3ccccc32)cc1,inactive: -27.2%
5,Cc1ccc(NC(=O)C2CCN(S(=O)(=O)c3c(C)noc3C)CC2)cc1C,inactive: -5.85%
6,COC(=O)c1cc2oc(C)cc2n1Cc1ccc(Cl)cc1,inactive: 11.8%
7,CCOc1ccc(CNC(=O)c2cnc(SC)nc2C)cc1,inactive: -27%
8,COC(=O)c1c(-c2cccs2)csc1NC(=O)COc1ccc(C(C)C)cc1,inactive: -24.8%
9,CCOC(=O)C1CCN(C(=O)c2nn(-c3ccc(C)cc3)c(=O)n(C)c2=O)CC1,inactive: -10.4%
10,O=C(Nc1ccc(Cl)cc1C(F)(F)F)c1cc(S(=O)(=O)NCc2ccccc2)ccc1F,inactive: -26.8%
11,CCc1ccc(CNC(=O)c2ccc(CS(=O)(=O)Cc3ccccc3C)o2)cc1,inactive: -37.5%
12,CCN(CC)C(=O)C1CCN(C(=O)c2cnn(-c3ccccc3)c2-n2cccc2)CC1,inactive: -16.5%
13,O=C(CSc1nccn1C1CCCC1)Nc1ccccc1,inactive: 25.4%
14,CCOC(=O)CSc1nc2ccccc2n2c(C)nnc12,inactive: 0.692%
15,CCc1ccccc1NC(=O)CSc1nccn1C,inactive: -14.6%
16,CCOC(=O)c1cc(OC(=O)c2cc(Cl)ccc2OC)n(-c2ccccc2)n1,inactive: -3.87%
17,CCc1ccc(S(=O)(=O)c2nnn3c2nc(NCCC(C)C)c2cc(Cl)ccc23)cc1,inactive: -3.38%
18,CC(=O)c1ccc(OC(=O)c2c(-c3ccccc3Cl)noc2C)cc1,inactive: -20.1%
19,COc1ccc2c(c1)c(CC(=O)Nc1cc(C)c(OC)c(C)c1)c(C)n2C(=O)c1ccc(Cl)cc1,inactive: -23.3%
20,O=C(COc1ccc(Cl)cc1Cl)Nc1ccc(C(=O)OC2CCCCC2)cc1,inactive: -22.3%
21,Cn1nc(C(=O)Nc2cccc(C(F)(F)F)c2)c2c1-c1ccccc1S(=O)(=O)C2,inactive: 8.38%
22,CCCN(CCC)S(=O)(=O)c1ccc(C(=O)N2CCn3c4c(c5cc(C)ccc53)CCCC42)cc1 (stereo not given),inactive: -29.8%
23,CCOc1ccc(NS(=O)(=O)c2ccc3[nH]cc(C(=O)NCCc4ccccc4)c(=O)c3c2)cc1,inactive: 3.41%
24,COc1ccccc1Nc1ncnc2c1nc1n2CCCCC1,inactive: -2.95%

row,SMILES,"activity change, positive = activation"
1,Cn1c(SCC(=O)Nc2ccccc2F)nc2c([nH]c3ccccc32)c1=O,inactive: -19.3%
2,CC(=O)c1cc(-c2ccccc2)n(CC(=O)Nc2ccc(C)cc2C)c1C,inactive: -9.25%
3,Nc1nonc1-c1nc2ccccc2n1CC(=O)Nc1ccc(F)cc1,inactive: -5.15%
4,Cc1ccc(S(=O)(=O)c2cn(CC(=O)Nc3ccccc3)c3cc4c(cc3c2=O)OCO4)cc1,inactive: -16.4%
5,Cc1ccc(-c2nc(CS(=O)CC(=O)O)c(C)o2)cc1 (stereo not given),inactive: -5.85%
6,Fc1ccc(C(c2ccc(F)cc2)N2CCNCC2)cc1,inactive: -2%
7,CCOc1ccccc1NC(=O)NC(CC)c1c(-n2cccc2)sc2c1CCN(C)C2 (stereo not given),inactive: -8.09%
8,Cc1cccc(N2CCN(C(=O)c3ccc4c(c3)CCN4S(=O)(=O)c3ccccc3)CC2)c1C,inactive: -22.5%
9,CCc1ccc(Nc2nc3ccccc3c3nnc(C)n23)cc1,inactive: -14.1%
10,Cc1cccc(C(=O)NCc2cn3cccc(C)c3n2)c1,inactive: -5.79%
11,CC(C)c1ccc(Cc2cnc(NC(=O)c3ccc4c(c3)CC(c3ccccc3)OC4=O)s2)cc1 (stereo not given),inactive: -68.4%
12,O=c1cc(N2CCN(c3ccc(F)cc3)CC2)[nH]c(=O)n1-c1cccc(Br)c1,inactive: -29%
13,Cc1ccc(-n2c(=O)c3cccnc3n2CC(=O)Nc2ccccc2C(F)(F)F)cc1C,inactive: -18.8%
14,COc1cccc(CNC(=O)C2CCCN(S(=O)(=O)c3cn(C)cn3)C2)c1 (stereo not given),inactive: -4.12%
15,CC[C@H](C)NC(=O)CCCc1nnc2n(CCC(C)C)c(=O)c3sccc3n12,inactive: -8.97%
16,Cc1ccc(C)c(NC(=O)C(NS(=O)(=O)c2ccc3c(c2)CCC(=O)N3)c2ccccc2)c1 (stereo not given),inactive: -13.1%
17,COc1ccccc1OC(C)C(=O)N1CCN(CCc2ccccn2)CC1 (stereo not given),inactive: -6.38%
18,COc1ccc(-c2cn3c(n2)sc2cc(C(=O)NC4CCCCC4)ccc23)cc1,inactive: -13.3%
19,Cc1ccnc(NC(c2cc(C)ccc2O)c2ccc3cccnc3c2O)c1 (stereo not given),inactive: -33.9%
20,COc1ccc(S(=O)(=O)N(C(=O)c2ccncc2)c2ccc3oc(C)c(C(C)=O)c3c2)cc1,inactive: -50.8%
21,Cc1ccc(CNC(=O)C2CCN(S(=O)(=O)c3c(C)noc3/C=C/c3ccccc3F)CC2)o1,inactive: 1.95%
22,COc1ccccc1N1CCN(Cc2cc(COC(C)C)c3cccnc3c2O)CC1,inactive: -33.5%
23,CCOC(=O)C1CCCN(C(=O)Cn2nc(C)n3c(cc4c(OC)cccc43)c2=O)C1 (stereo not given),inactive: -17.3%
24,CCC(C)n1c(=N)c(C(=O)NC2CCCCC2)cc2c(=O)n3cc(C)ccc3nc21 (stereo not given),inactive: -9.32%

row,SMILES,"activity change, positive = activation"
1,CCC(=O)N1c2ccccc2CC1C(=O)NCCN1CCN(c2ccccc2F)CC1 (stereo not given),inactive: -11.6%
2,Cc1ccc(NC(=O)CSc2nc(=O)n(CCN3CCOCC3)c3c2CCC3)cc1Cl,inactive: -29.8%
3,Cn1c(=O)nc2n(-c3ccc(Br)cc3)c3cccc(Cl)c3cc-2c1=O,inactive: -8.98%
4,Cc1ccc(C)c(N2CCN(S(=O)(=O)c3ccc(C4CCCCC4)cc3)CC2)c1,inactive: -10.4%
5,CC(C)(C)OC(=O)N1CCC(c2c(C(=O)NCc3ccccn3)cnn2-c2ccccc2Cl)CC1,inactive: -7.7%
6,CCCc1noc(-c2ccc(NCc3ccccc3OC)c([N+](=O)[O-])c2)n1,inactive: -14.2%
7,CC(C)c1ccc(NC(=O)CSC2=Nc3ccccc3C3=NC(CC(=O)NCCc4ccccc4)C(=O)N23)cc1 (stereo not given),inactive: -28.5%
8,Cc1[nH]c2ccccc2c1SCCNC(=O)c1ccc(F)cc1,inactive: -29.2%
9,COc1ccc(Cl)cc1NC(=O)c1c(NCc2cccs2)sc2c1CCC(C)C2 (stereo not given),inactive: -20.7%
10,CCOc1ccccc1NC(=O)CSc1nc(-c2cccs2)cc(C(F)(F)F)n1,inactive: -2.95%
11,Cc1cc(-c2ccc(C)c(S(=O)(=O)NCCc3ccccc3)c2)on1,inactive: -17.7%
12,O=C(Nc1cc(-c2nc3ccccc3o2)ccc1Cl)c1cc([N+](=O)[O-])ccc1N1CCOCC1,inactive: 4.83%
13,COc1cccc(CNC(=O)C2CCN(c3ncnc4c3nc3n4CCCCC3)CC2)c1,inactive: -18.1%
14,O=C1CCC[C@@H]2[C@H]3CCC[N+]4([O-])CCC[C@@H](CN12)[C@@H]34 (stereo not given in full),inactive: -12.1%
15,Cn1cc(-c2cc3n(n2)CCC(=O)N3CC(=O)NCc2ccccc2)c2ccccc21,inactive: -10.4%
16,Cc1ccccc1C(=O)Nc1ccc2nc(SCC(=O)N(C)c3ccccc3)sc2c1,inactive: -32%
17,CN(C)C1(CNC(=O)COc2cccc(Cl)c2)CCCCC1,inactive: -19.5%
18,Cc1cccc(Cn2c(SCc3ccc(C(=O)NCc4cccs4)cc3)nc3ccncc32)c1,inactive: -21.6%
19,COc1ccc2c(c1)Cc1sc(NC(=O)c3cccc(Cl)c3)nc1-2,inactive: 2.35%
20,CC1CCN(S(=O)(=O)c2ccc3nc(N4CCN(c5ccccc5F)CC4)ccc3c2)CC1,inactive: -5.55%
21,COc1ccc(/C=C(\C#N)c2nc(-c3cc4ccccc4oc3=O)cs2)cc1OC,inactive: -11.7%
22,Cc1ccc(-c2onc(C)c2C)cc1S(=O)(=O)NC1CCC(C)CC1 (stereo not given),inactive: -46.8%
23,CCOc1cc(C2CC(=O)Nc3c2c(C)nn3-c2nc(C)cc(C)n2)ccc1O (stereo not given),inactive: -2.79%
